Laboratory results from US6630504B2, “Phenoxyphenylheterocyclyl derivatives as SSRIs” (Pfizer Inc., priority 2000, dated 2003).
Where a name gives a salt, the structure may show the parent alone. Some results were stated once for a whole list of compounds, not compound by compound. For some of these results: For at least one compound, name, drawing or mass did not settle the structure.

Columns and labels:
Type in all cases: cell-based
[1] = target: T1, noradrenaline transporter (hNET) (Homo sapiens, UniProt P23975); assay: inhibition of 3H-noradrenaline uptake in HEK-293 cells expressing hNET; conditions: selectivity hSERT versus hNET; sentence states dopamine and noradrenaline
T1 construct: expressed in transfected cells; host or cells: HEK-293 (stably transfected)
T1 sequence (P23975 whole entry): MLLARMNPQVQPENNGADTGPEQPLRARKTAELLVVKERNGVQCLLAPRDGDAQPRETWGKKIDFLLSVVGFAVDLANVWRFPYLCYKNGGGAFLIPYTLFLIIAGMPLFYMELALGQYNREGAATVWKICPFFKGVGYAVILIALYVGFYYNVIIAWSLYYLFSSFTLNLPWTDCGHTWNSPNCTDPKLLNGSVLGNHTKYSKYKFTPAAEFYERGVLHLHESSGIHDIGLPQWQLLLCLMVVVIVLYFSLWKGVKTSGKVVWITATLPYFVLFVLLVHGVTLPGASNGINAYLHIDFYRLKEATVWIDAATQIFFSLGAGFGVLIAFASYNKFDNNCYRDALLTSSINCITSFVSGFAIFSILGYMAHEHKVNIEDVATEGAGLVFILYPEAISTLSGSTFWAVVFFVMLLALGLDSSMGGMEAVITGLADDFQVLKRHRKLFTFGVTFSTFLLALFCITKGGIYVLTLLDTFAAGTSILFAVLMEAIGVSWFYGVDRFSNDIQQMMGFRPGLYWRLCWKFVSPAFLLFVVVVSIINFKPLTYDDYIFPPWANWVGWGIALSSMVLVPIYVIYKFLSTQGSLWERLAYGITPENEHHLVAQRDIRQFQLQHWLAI

[2] = target: T2, dopamine transporter (hDAT) (Homo sapiens, UniProt Q01959); assay: inhibition of 3H-dopamine uptake in HEK-293 cells expressing hDAT; conditions: selectivity hSERT versus hDAT; sentence states dopamine and noradrenaline
T2 construct: expressed in transfected cells; host or cells: HEK-293 (stably transfected)
T2 sequence (Q01959 whole entry): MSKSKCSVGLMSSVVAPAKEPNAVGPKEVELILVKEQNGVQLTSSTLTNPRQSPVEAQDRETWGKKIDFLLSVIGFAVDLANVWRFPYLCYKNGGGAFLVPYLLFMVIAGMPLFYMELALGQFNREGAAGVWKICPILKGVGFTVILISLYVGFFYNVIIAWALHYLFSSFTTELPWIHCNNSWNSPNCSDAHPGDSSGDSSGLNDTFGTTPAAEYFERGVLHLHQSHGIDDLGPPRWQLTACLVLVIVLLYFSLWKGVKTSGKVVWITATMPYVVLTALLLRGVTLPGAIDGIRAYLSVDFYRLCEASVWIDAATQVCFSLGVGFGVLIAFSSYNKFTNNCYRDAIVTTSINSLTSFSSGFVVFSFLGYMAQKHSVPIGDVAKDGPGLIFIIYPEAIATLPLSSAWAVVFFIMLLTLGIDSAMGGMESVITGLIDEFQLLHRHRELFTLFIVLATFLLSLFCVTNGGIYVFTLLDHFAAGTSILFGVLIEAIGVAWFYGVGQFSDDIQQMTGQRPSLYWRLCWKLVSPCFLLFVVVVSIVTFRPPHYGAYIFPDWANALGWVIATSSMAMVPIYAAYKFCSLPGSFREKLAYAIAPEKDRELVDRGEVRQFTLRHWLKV

[3] = target: T3, human serotonin transporter (hSERT) (Homo sapiens, UniProt P31645); assay: inhibition of 3H-serotonin uptake in HEK-293 cells expressing hSERT; conditions: for IC50: HEK-293 cells with hSERT, 3H-5HT 50 nM, 5 min incubation, read-out: serotonin re-uptake inhibition (SRI) IC50; for fold more potent in the inhibition of serotonin re-uptake than in the inhibition of dopamine re-uptake or noradrenaline re-uptake: selectivity hSERT versus hDAT or hNET (at least one of the two)
T3 construct: expressed in transfected cells; host or cells: HEK-293 (stably transfected)
T3 sequence (P31645 whole entry): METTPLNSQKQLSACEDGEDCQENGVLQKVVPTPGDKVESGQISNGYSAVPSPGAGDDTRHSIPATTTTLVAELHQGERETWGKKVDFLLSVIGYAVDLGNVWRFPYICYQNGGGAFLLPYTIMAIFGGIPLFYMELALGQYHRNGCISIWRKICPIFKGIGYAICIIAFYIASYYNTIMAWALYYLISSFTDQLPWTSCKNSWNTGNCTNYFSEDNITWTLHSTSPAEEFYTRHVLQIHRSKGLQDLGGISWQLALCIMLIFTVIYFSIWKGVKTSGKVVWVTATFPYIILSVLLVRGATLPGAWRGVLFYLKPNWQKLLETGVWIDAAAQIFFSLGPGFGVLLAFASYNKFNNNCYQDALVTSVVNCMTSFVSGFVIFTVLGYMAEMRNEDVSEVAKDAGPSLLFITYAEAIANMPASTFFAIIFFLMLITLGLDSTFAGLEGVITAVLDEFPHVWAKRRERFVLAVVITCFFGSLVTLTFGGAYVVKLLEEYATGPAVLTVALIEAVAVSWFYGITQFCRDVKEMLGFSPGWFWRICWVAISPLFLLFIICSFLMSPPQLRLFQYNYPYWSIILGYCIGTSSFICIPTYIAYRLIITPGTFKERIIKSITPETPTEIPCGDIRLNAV
Protocol: A number of compounds were tested for biological activity by their ability to inhibit the uptake of serotonin by human serotonin transporters as follows.
Human embryonic kidney cells (HEK-293) stably transfected with either the human serotonin transporter (hSERT), noradrenaline transporter (hNET) or dopamine transporter (hDAT) were cultured under standard cell culture techniques (cells were grown at 37° C. and 5% CO2 in DMEM-culture media (supplemented with 10% dialysed foetal calf serum (FCS), 2 mM I-glutamine and 250 μg/ml geneticin)). Cells were harvested for the assay to yield a cell suspension of 750,000 cells/ml.
All test compounds were dissolved in 100% DMSO and diluted down in assay buffer to give appropriate test concentrations. Assays were carried out in 96-well filter bottom plates. Cells (7500 cells/assay well) were pre-incubated in standard assay buffer containing either test compound, standard inhibitor or compound vehicle (1% DMSO) for 5 minutes. Reactions were started by addition of either ^3H-Serotonin, ^3H-Noradrenaline or ^3H-Dopamine substrates. All reactions were carried out at room temperature in a shaking incubator. Incubation times were 5 minutes for the hSERT and hDAT assays and 15 minutes for the hNET assay. Reactions were terminated by removal of the reaction mixture using a vacuum manifold followed by rapid washing with ice cold assay buffer. The quantity of ^3H-substrate incorporated into the cells was then quantified.
Assay plates were dried in a microwave oven, scintillation fluid added, and radioactivity measured. Potency of test compounds was quantified as IC50 values (concentration of test compound required to inhibit the specific uptake of radiolabelled substrate into the cells by 50%).

With `CS(=O)(=O)Nc1ccc(Oc2ccc(OC(F)(F)F)cc2)c(C2CCCN2)c1` (single isomer, unassigned; (+)) [Example 22, (+) N-{3-(2-pyrrolidinyl)-4-[4-(trifluoromethoxy)phenoxy]phenyl}-methanesulfonamide] the “fold more potent in the inhibition of serotonin re-uptake than in the inhibition of noradrenaline re-uptake” value [1] was “more than 100 fold” and the “fold more potent in the inhibition of serotonin re-uptake than in the inhibition of dopamine re-uptake” value [2] was “more than 100 fold”.

For `Brc1ccc(Oc2ccc3c(c2)CCC3)c(C2CCCN2)c1` (stereo not shown) [Example 4], the IC50 [3] was no more than 100 nM.

Compound `O=S(=O)(Nc1ccc(Oc2ccc(OC(F)(F)F)cc2)c(C2CCCN2)c1)C(F)(F)F` (stereo not shown) [Example 18, Trifluoro-N-{3-(2-pyrrolidinyl)-4-[4-(trifluoromethoxyphenoxy]phenyl}-methanesulfonamide hydrochloride] has an IC50 [3] of no more than 100 nM.

With `CSc1ccc(Oc2ccccc2C2CCCN2)cc1` (stereo not shown) [Example 1, 2-{2-[4-(Methylsulfanyl)phenoxy]phenyl}pyrrolidine hydrochloride] the IC50 [3] was no more than 100 nM and the “fold more potent in the inhibition of serotonin re-uptake than in the inhibition of dopamine re-uptake or noradrenaline re-uptake” value [3] was “more than 10 fold”.

`CNS(=O)(=O)c1ccc(Oc2ccc(C(F)(F)F)cc2)c(C2CCCN2)c1` (stereo not shown) [Example 9] showed an IC50 [3] of no more than 100 nM.

`CS(=O)(=O)Nc1ccc(Oc2ccc(C(F)(F)F)cc2)c(C2CCCN2)c1` (stereo not shown) [Example 19] gave an IC50 [3] of no more than 100 nM.

In the case of `CNS(=O)(=O)c1ccc(Oc2ccc(SC)cc2)c(C2CCCN2)c1` (single isomer, unassigned) [Example 10, N-methyl-4-[4-(methylsulfanyl)phenoxy]-3-(2-pyrrolidinyl)benzenesulfonamide], the IC50 [3] is reported as no more than 100 nM.

In the case of `CSc1ccc(Oc2ccc(S(N)(=O)=O)cc2C2CCCN2)cc1` (single isomer, unassigned; (-)) [Example 6, (−)4-[4-(Methylsulfanyl)phenoxy]-3-(2-pyrrolidinyl)benzenesulfonamide hydrochloride], the IC50 [3] is reported as no more than 100 nM and the “fold more potent in the inhibition of serotonin re-uptake than in the inhibition of dopamine re-uptake or noradrenaline re-uptake” value ([3]; hydrochloride) is reported as “more than 10 fold”.

Compound `CN(c1ccc(Oc2ccc(OC(F)(F)F)cc2)c(C2CCCN2)c1)S(C)(=O)=O` (stereo not shown) [Example 20, N-methyl-N-{3-(2-pyrrolidinyl)-4-[4-(trifluoromethoxy)phenoxy]phenyl}-methanesulfonamide] has an IC50 [3] of no more than 100 nM.

`NS(=O)(=O)c1ccc(Oc2ccc(C(F)(F)F)cc2)c(C2CCCN2)c1` (stereo not shown) [Example 8] gave an IC50 [3] of no more than 100 nM.

With `CSc1ccc(Oc2ccc(S(N)(=O)=O)cc2C2CCCN2C)cc1` (single isomer, unassigned; (-)) [Example 14, (−) 3-(1-Methyl-2-pyrrolidinyl)-4-[4-(methylsulfanyl)phenoxy]benzenesulfonamide hydrochloride] the IC50 [3] was no more than 100 nM.

Compound `CSc1ccc(Oc2ccccc2C2CCCN2C)cc1` (stereo not shown) [Example 12, 1-Methyl-2-{2-[4-(methylsulfanyl)phenoxy]phenyl}pyrrolidine hydrochloride] has an IC50 [3] of no more than 100 nM.

Work on `FC(F)(F)Oc1ccc(Oc2ccccc2C2CCCN2)cc1` (stereo not shown) [Example 3] yielded an IC50 [3] of no more than 100 nM.

`CNS(=O)(=O)c1ccc(Oc2ccc(SC)cc2)c(C2CCCN2)c1` (single isomer, unassigned) [Example 11, N-methyl-4-[4-(methylsulfanyl)phenoxy]-3-(2-pyrrolidinyl)benzenesulfonamide] was tested, and the “fold more potent in the inhibition of serotonin re-uptake than in the inhibition of noradrenaline re-uptake” value [1] was “more than 100 fold” and the “fold more potent in the inhibition of serotonin re-uptake than in the inhibition of dopamine re-uptake” value [2] was “more than 100 fold”.

In the case of `CSc1ccc(Oc2ccc(S(N)(=O)=O)cc2C2CCCN2)cc1` (single isomer, unassigned; (+)) [Example 7, (+)4-[4-(Methylsulfanyl)phenoxy]-3-(2-pyrrolidinyl)benzenesulfonamide hydrochloride], the “fold more potent in the inhibition of serotonin re-uptake than in the inhibition of noradrenaline re-uptake” value [1] is reported as “more than 100 fold” and the “fold more potent in the inhibition of serotonin re-uptake than in the inhibition of dopamine re-uptake” value [2] is reported as “more than 100 fold”.

Compound `CSc1ccc(Oc2ccc(NS(C)(=O)=O)cc2C2CCCN2)cc1C` (stereo not shown) [Example 5] has an IC50 [3] of no more than 100 nM.

In the case of `CS(=O)(=O)Nc1ccc(Oc2ccc(OC(F)(F)F)cc2)c(C2CCCN2)c1` (single isomer, unassigned) [Example 21], the IC50 [3] is reported as no more than 100 nM.
